Patent publication US20190127468A1 (ONCOIMMUNE, published 2019)

Columns and labels:
[1] = molecular target: T1, human B7-1 Fc fusion protein (human, UniProt P33681 35-242); assay: ELISA, plate-coated WT CTLA-4Fc, biotinylated protein
T1 construct: also called B7-1 Ig; B7-1 Ig fusion protein; not shown: Fc portion, not described
T1 sequence (looked up): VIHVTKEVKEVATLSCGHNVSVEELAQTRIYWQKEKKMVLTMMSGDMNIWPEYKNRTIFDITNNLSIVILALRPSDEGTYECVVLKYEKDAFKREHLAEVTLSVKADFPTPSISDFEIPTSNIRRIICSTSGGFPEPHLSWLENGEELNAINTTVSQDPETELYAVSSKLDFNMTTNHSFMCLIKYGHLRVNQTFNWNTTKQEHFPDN

[2] = molecular target: T1, human B7-1 Fc fusion protein; assay: ELISA, plate-coated CTLA-4Fc mutant, biotinylated B7-1 Ig

B1: WT human CTLA-4Fc protein (Fc fusion)
chain: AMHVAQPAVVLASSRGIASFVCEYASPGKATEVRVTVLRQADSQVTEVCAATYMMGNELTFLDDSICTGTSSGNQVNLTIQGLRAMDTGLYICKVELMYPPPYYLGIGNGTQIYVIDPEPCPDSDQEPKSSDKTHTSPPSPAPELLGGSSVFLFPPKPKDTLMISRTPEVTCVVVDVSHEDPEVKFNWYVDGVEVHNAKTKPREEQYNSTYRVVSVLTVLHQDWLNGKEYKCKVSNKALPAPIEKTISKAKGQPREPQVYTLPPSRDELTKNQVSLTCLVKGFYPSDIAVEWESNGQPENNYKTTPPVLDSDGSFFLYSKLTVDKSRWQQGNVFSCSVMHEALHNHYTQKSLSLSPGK
notes: Produced in HEK293, Protein A purified; also called CTLA-4Fc WT control; hCTLA4-Fc
B1: binds [1].

B2: CTLA-4Fc mutant M9 (Fc fusion)
chain: AMHVAQPAVVLASSRGIASFVCEYASPGKATEVRVTVLRQADSQVTEVCAATYMMGNELTFLDDSICTGTSSGNQVNLTIQGLRAMVDTGLYICKVELMYPPPYYLGIGNGTQIYVIDPEPCPDSDQ[left out - human IgG1 Fc with changes]
notes: also called Mutant 9
B2: no binding (tested: 1 ug/ml) [2].

B3: CTLA-4Fc mutant M10 (Fc fusion)
chain: AMHVAQPAVVLASSRGIASFVCEYASPGKATEVRVTVLRQADSQVTEVCAATYMMGNELTFLDDSICTGTSSGNQVNLTIQGLRAMMDTGLYLCKVELMYPPPYYLGIGNGTQIYVIDPEPCPDSDQ[left out - human IgG1 Fc with changes]
notes: also called Mutant 10
B3: no binding (tested: 1 ug/ml) [2].
